For some of these results: What follows is the remainder of the data, with few or none of the hits. Records with an inconclusive call do not appear. The entries are a selection whose mix differs from that of the whole data set. Calls of active or inactive are those of the source. Calls come from the whole dose curve; as a rule, active = well fitted curve in the direction sought with a large enough effect; inconclusive = small, poorly fitted or top-dose-only effect, or another doubt; inactive = no such curve, though single readings can be large; an effect the other way counts as inactive or inconclusive.
Columns and labels:
[1] = target: Cytochrome P450 3A7 (Homo sapiens) (UniProt P24462); assay: Cytochrome P450 family 3 subfamily A member 7 (CYP3A7) small molecule antagonists: luciferase biochemical qHTS assay (AID 1963596); note: nearly all actives have a fitted effect of over 40% in size; note: potency is the fitted concentration of half-maximal effect
Text: National Center for Advancing Translational Sciences [NCATS] Assay Overview: Cytochrome P450 (CYP) enzymes are membrane-bound hemeproteins that play a key role in metabolism of drugs and xenobiotics. The CYP3A subfamily is the most abundant, representing 30% of the total adult hepatic CYP content, whereas CYP3A7 is found predominantly in human fetal liver and accounts up to 50% of the total fetal hepatic CYP content. Testing the effect of chemicals on CYP isozymes is useful to minimize the adverse drug reactions and toxicities in the drug development process. Chemicals were tested for their effect on CYP enzyme activities by using P450-Glo (TM) screening systems (Promega Corporation, Madison, WI). […] The luciferin products formed are detected with a luciferin detection reagent, and the amount of light produced is proportional to CYP activity. […]
Assay Protocol Summary: Two ul of enzyme-substrate mix was dispensed into medium binding white/solid 1536-well plates (Greiner Bio-One North America Inc., Monroe, NC) using a Flying Reagent Dispenser (FRD, Aurora Discovery, San Diego, CA). […] The reaction was stopped by adding 4 ul of detection reagent using an FRD and after 20 min incubation at room temperature the luminescence signal was measured using a ViewLux plate reader (Perkin Elmer, Shelton, CT). Data were expressed as relative luminescence units.

[2] = Quantitative highthroughput screen to assess conditional lethalithy of P12 Ichikawa cells grown in Human Plasma-Like Medium with dialyzed fetal bovine serum (HPLM+ds) (AID 1963879); conditions: ATP luminescence, 48 h; at 45.8 µM (top of the series); note: nearly all actives have a fitted effect of over 35% in size
Text: (§1) Assay Provider: Jason Cantor Ph.D.
(§2) Department of Biochemistry
(§3) University of Wisconsin-Madison, Madison, WI, USA
(§4) Chemical screening studies have identified drug sensitivities across hundreds of cancer cell lines but most putative therapeutics fail to translate. Discovery and development of drug candidates in models that more accurately reflect nutrient levels in human blood is a major challenge. Here we performed high-throughput screens in conventional versus Human Plasma-Like Medium (HPLM) to identify compounds that were "missed" when screening using the artificial culture condition. Sets of conditional anticancer compounds spanned phases of clinical development and included non-oncology drugs were assessed. […] We also traced conditional phenotypes for several chemotherapeutics to availability of HPLM-specific metabolites and confirmed others for compounds whose reported targets are encoded by nonessential genes. Our findings establish generalizable strategies for exploiting conditional lethality in HPLM to reveal therapeutic candidates and mechanisms of action in cancer cells. […]
(§5) 6; Detection; Luminescence, Viewlux PerkinElmer. […]
(§6) 6. The luminescence signal was measured using a ViewLux (PerkinElmer) multiplate reader with a 2 second exposure time per plate. […]

[3] = Quantitative highthroughput screen to assess conditional lethalithy of P12 Ichikawa cells grown in RPMI1640 with untreated serum (RPMI+s) (AID 1963881); conditions: ATP luminescence, 48 h; at 45.8 µM (top of the series);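 note: 100% = DMSO wells and 0% = empty wells without cells; nearly all actives have a fitted effect of over 35% in size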
Text: as §1, §2, §3, §4, §5, §6

UniProt P24462, sequence (P24462 whole entry, looked up): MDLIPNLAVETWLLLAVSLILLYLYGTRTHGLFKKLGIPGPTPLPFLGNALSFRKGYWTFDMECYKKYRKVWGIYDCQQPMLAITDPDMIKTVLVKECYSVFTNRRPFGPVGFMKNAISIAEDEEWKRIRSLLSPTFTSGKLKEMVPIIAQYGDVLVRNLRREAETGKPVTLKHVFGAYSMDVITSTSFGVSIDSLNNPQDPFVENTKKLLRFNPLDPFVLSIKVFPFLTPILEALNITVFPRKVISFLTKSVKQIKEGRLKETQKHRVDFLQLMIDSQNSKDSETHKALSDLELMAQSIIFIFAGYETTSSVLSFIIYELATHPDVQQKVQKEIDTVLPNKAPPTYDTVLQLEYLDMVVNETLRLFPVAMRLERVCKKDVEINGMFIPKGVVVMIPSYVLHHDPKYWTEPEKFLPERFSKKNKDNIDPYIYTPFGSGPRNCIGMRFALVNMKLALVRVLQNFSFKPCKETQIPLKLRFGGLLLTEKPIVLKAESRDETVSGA

SMILES | Potency [1] | viability [2] | viability [3]
C[C@@H]1CN(Cc2ccc(F)cc2)CCN1C(=O)COc1ccc(Cl)cc1NC(N)=O | active: 7.08 µM | – | –
CCNC(=O)CC1N=C(c2ccc(Cl)cc2)c2cc(OC)ccc2-n2c(C)nnc21 (centres undefined) | active: 23.9 µM and inactive | inactive: 89.8% | inactive: 84.5%

Reference: PubChem BioAssay (NCATS)
